From the supplement of paper PMC9588766 come the findings set out here.

The structures appear in SMILES notation. Structures can show the parent of a compound that is named as a salt. ± gives the standard deviation of the averaged measurements. In all, about 2,000 compounds were measured (“cell viability relative to DMSO control (compound alone)”: median about 0.98, lowest 2% from about 0.23 on). This is one part of the list.

The subject of this assay is PDC-DUC18828. The assay can be described thus: cell viability relative to DMSO control (compound alone) (fraction); PDC-DUC18828 is a patient-derived cholangiocarcinoma cell line; higher = less growth inhibition. Particulars: 1 µM; 72 h. As to the method: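 Selleck Bioactive library screen in the patient-derived FGFR2-G3BP2 fusion-positive ICC cell line PDC-DUC18828 (500 cells/well). Each compound was tested at 1 uM alone, in triplicate, for 72 h. Viability was read by CellTiter-Glo and normalised to plate DMSO controls.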
Regarding `COC(c1ccccc1)(c1ccccc1)[C@H](Oc1nc(C)cc(C)n1)C(=O)O` [Ambrisentan], the cell viability was 1.06 ± 0.055.

Turning to `CC(=O)Nc1ccccc1` [Acetanilide], the cell viability was found to be 0.961 ± 0.041. The compound `O=C(/C=C/c1ccc2ccccc2n1)c1ccncc1` returned a cell viability of 1.03 ± 0.025.

For `Cc1cc(C(N)=O)ccc1-n1c(CCC(=O)O)ccc1-c1ccc(-n2ccnc2)cc1`, the cell viability stood at 0.998 ± 0.046. As for `COC(=O)C[C@H](NC(=O)[C@H](C)NC(=O)[C@@H](NC(=O)OCc1ccccc1)C(C)C)C(=O)CF`, the figure is 0.98 ± 0.037; as for `CC(C(=O)O)c1ccc2c(c1)Cc1cccnc1O2` (stereo not given) [Pranoprofen], 1.04 ± 0.022. Consider `O=C(N/N=C/c1cc(O)c(O)cc1O)c1cc2ccccc2cc1O` [Dyngo-4a], for which the cell viability is 0.833 ± 0.06.

On to `Clc1ccc(NN=C(c2ccccc2)c2ccccn2)nc1`, for which the cell viability was found to be 0.319 ± 0.014. As for `C[N+]1(C)[C@@H]2C[C@@H](OC(=O)C(O)(c3cccs3)c3cccs3)C[C@H]1[C@@H]1O[C@@H]12` [Tiotropium Bromide hydrate], the figure is 1 ± 0.055; as for `O=C[C@H](O)[C@@H](O)[C@H](O)CO` [Xylose], 1.08 ± 0.046.

`CC(=O)O[C@]1(C(C)=O)CC[C@H]2[C@@H]3C[C@H](C)C4=CC(=O)C=C[C@]4(C)[C@@]3(F)[C@@H](O)C[C@@]21C` [Fluorometholone Acetate]: the cell viability is 0.849 ± 0.046. As for `COc1ccc([C@@H]2CC(=O)c3c(O)cc(O[C@@H]4O[C@H](CO[C@@H]5O[C@@H](C)[C@H](O)[C@@H](O)[C@H]5O)[C@@H](O)[C@H](O)[C@H]4O)cc3O2)cc1O` [Hesperidin], the figure is 0.958 ± 0.042; as for `O=c1cc(N2CCOCC2)oc2c(-c3cccc4c3sc3ccccc34)cccc12`, 1.01 ± 0.033.

As to `CC(C)(C(=O)O)c1ccc(C(O)CCCN2CCC(C(O)(c3ccccc3)c3ccccc3)CC2)cc1` (stereo not given) [Fexofenadine HCl], the cell viability stood at 0.999 ± 0.043. Compound `Cc1onc(-c2c(Cl)cccc2Cl)c1C(=O)N[C@@H]1C(=O)N2[C@@H]1SC(C)(C)[C@@H]2C(=O)O` [Dicloxacillin Sodium] displayed a cell viability of 1.02 ± 0.03. The figure for `Cc1cc(NC(=O)Nc2ccc(N(C)C)cc2)c2cc(F)cc(F)c2n1` is 1.01 ± 0.04; for `Cn1cc(-c2ccc3ncc(Cc4ccc5ncccc5c4)n3n2)cn1` it is 0.968 ± 0.015; for `CC1C(=O)OC2C(O)C34C5CC(C(C)(C)C)C36C(OC(=O)C6O)OC4(C(=O)O5)C12O` (stereo not given) [Ginkgolide B] it is 1.03 ± 0.02. As for `CN(C)/N=N/c1[nH]cnc1C(N)=O` [Dacarbazine], the figure is 0.993 ± 0.034; as for `O=C(O)c1cccnc1Nc1cccc(C(F)(F)F)c1` [Niflumic acid], 0.989 ± 0.022; as for `Cc1oncc1C(=O)Nc1ccc(C(F)(F)F)cc1` [Leflunomide], 0.946 ± 0.043. As for `CC1CC(OC(=O)C(O)c2ccccc2)CC(C)(C)C1` (stereo not given) [Cyclandelate], the figure is 1.02 ± 0.03. `CCOC(=O)[C@H](CCc1ccccc1)N[C@@H](C)C(=O)N1Cc2ccccc2C[C@H]1C(=O)O` [Quinapril HCl]: the cell viability stood at 0.974 ± 0.034. The figure for `CC(CCc1ccccc1)NCC(O)c1ccc(O)c(C(N)=O)c1` (stereo not given) [Labetalol HCl] is 1.06 ± 0.041. The figure for `CC1(C)S[C@@H]2[C@H](NC(=O)[C@H](NC(=O)N3CCNC3=O)c3ccccc3)C(=O)N2[C@H]1C(=O)O` [Azlocillin sodium salt] is 1.04 ± 0.034. Regarding `CCn1c2ccccc2c2cc(Nc3ccnc(NCCCN4CCOCC4)n3)ccc21`, the cell viability worked out at 0.953 ± 0.024. The figure for `Nc1nc2c(ncn2[C@@H]2O[C@H](CO)[C@@H](O)[C@H]2O)c(=O)[nH]1` [Guanosine] is 0.932 ± 0.034; for `CC(C)OC(=O)[C@H](C)N[P@](=O)(OC[C@H]1O[C@@H](n2ccc(=O)[nH]c2=O)[C@](C)(F)[C@@H]1O)Oc1ccccc1` [Sofosbuvir (PSI-7977, GS-7977)] it is 1.14 ± 0.14; for `CC(C)n1nc(-c2ccc3oc(N)nc3c2)c2c(N)ncnc21` it is 0.203 ± 0.0083. The figure for `O=C(O)c1cc(C(F)(F)F)ccc1N1CC[C@H](OCc2ccccn2)C1` is 0.962 ± 0.05; for `CC(=O)Nc1nc2c(Oc3cc(-c4ccc(C(F)(F)F)cc4)ncn3)cccc2s1` it is 0.962 ± 0.022; for `N[C@@H](Cc1c[nH]c2ccc(O)cc12)C(=O)O` [5-hydroxytryptophan (5-HTP)] it is 1.07 ± 0.025. Regarding `NC(=O)c1nc(F)cnc1O` [Favipiravir (T-705)], the cell viability is 1.04 ± 0.046. As for `N=C(N)Nc1ccc(C(=O)Oc2ccc3cc(C(=N)N)ccc3c2)cc1` [Nafamostat Mesylate], the figure is 1.02 ± 0.034; as for `O=C(NO)c1cccc(C(=O)NCCc2ccccc2)c1`, 0.894 ± 0.029; as for `O=C(O)/C=C/c1ccc(O)c(O)c1` [Caffeic Acid], 1.04 ± 0.064. `CC1(C)CC(=O)c2c(C(F)(F)F)nn(-c3ccc(C(N)=O)c(N[C@H]4CC[C@H](O)CC4)c3)c2C1`: the cell viability stood at 0.33 ± 0.03. Take `CCCCc1nc2cc(/C=C/C(=O)NO)ccc2n1CCN(CC)CC` [Pracinostat (SB939)]: the cell viability is 0.6136 ± 0.006. The figure for `COc1cc2nc(N(C)CCCNC(=O)C3CCCO3)nc(N)c2cc1OC` (stereo not given) [Alfuzosin HCl] is 1.05 ± 0.028; for `N#CSc1cc(SC#N)c(N)nc1N` it is 0.993 ± 0.05. As for `N[C@H]1C[C@@H]1c1ccc(-c2cccc(O)c2)cc1`, the figure is 1.02 ± 0.052; as for `COc1ccc(-c2ccc3ncc4c(c3c2)n(-c2ccc(N3CCNCC3)c(C(F)(F)F)c2)c(=O)n4C)cn1`, 0.0179 ± 0.0033; as for `CC(C)c1cc(-c2n[nH]c(=O)n2-c2ccc3c(ccn3C)c2)c(O)cc1O` [Ganetespib (STA-9090)], 0.332 ± 0.027. As for `CC(=O)O[C@]1(C(C)=O)CC[C@H]2[C@@H]3C=C(Cl)C4=CC(=O)[C@@H]5C[C@@H]5[C@]4(C)[C@H]3CC[C@@]21C` [Cyproterone Acetate], the figure is 1.06 ± 0.042; as for `CCCSc1nc(N[C@@H]2C[C@H]2c2ccc(F)c(F)c2)c2nnn([C@@H]3C[C@H](OCCO)[C@@H](O)[C@H]3O)c2n1` [Ticagrelor], 1.02 ± 0.037; as for `C=CC(=O)Nc1cccc(Nc2nc(Nc3ccc(Oc4ccnc(C(=O)NC)c4)cc3)ncc2F)c1`, 0.918 ± 0.1. In turn, `Cn1cc(-c2cnn3c(N)c(Br)c([C@@H]4CCCNC4)nc23)cn1` displayed a cell viability of 1.01 ± 0.041. The figure for `O=C(O)COCCN1CCN(C(c2ccccc2)c2ccc(Cl)cc2)CC1` (stereo not given) [Cetirizine DiHCl] is 1.02 ± 0.036; for `C=C1C[C@@]2(O)O[C@@]3(C[C@H]2C(C)C)[C@@H](C)CC[C@@H]13` [Curcumol] it is 0.993 ± 0.044. `Cc1ccc(NCCCc2ccccc2)c(N)c1` came in with a cell viability of 0.974 ± 0.02. In turn, `C=CC(=O)Nc1cc(Nc2nccc(-c3cn(C)c4ccccc34)n2)c(OC)cc1N(C)CCN(C)C` had a cell viability of 0.965 ± 0.054.

`C#Cc1cccc(Nc2ncnc3cc4c(cc23)OCCOCCOCCO4)c1` [Icotinib] displayed a cell viability of 1.03 ± 0.042. Take `C=CC(=O)Nc1cc(Nc2nccc(-c3c[nH]c4ccccc34)n2)c(OC)cc1N(C)CCN(C)C`: the cell viability was 1 ± 0.029. The figure for `CC1(C)[C@H](C(=O)O)N2C(=O)C[C@H]2S1(=O)=O` [Sulbactam sodium] is 1.04 ± 0.02; for `CC1(C)[C@H](C(=O)O)N2C(=O)C[C@H]2S1(=O)=O` [Sulbactam] it is 0.945 ± 0.035; for `Cc1ncc(CO)c(CO)c1O` [Pyridoxine HCl] it is 0.974 ± 0.035. Compound `O=C(O)c1ccc(-c2c[nH]c3ncc(-c4ccccc4)cc23)cc1C1CCCC1` gave a cell viability of 0.8898 ± 0.0069.

With `CNS(=O)(=O)CCc1ccc2[nH]cc(C3CCN(C)CC3)c2c1` [Naratriptan], the cell viability is 1.06 ± 0.034. Compound `CC(=O)Oc1ccccc1C(=O)O` [Aspirin] returned a cell viability of 0.978 ± 0.048. The figure for `N=C(N)NS(=O)(=O)c1ccc(N)cc1` [Sulfaguanidine] is 1.11 ± 0.048. The figure for `COc1ccc2ccc(=O)oc2c1CC=C(C)C` [Osthole] is 0.961 ± 0.047; for `O=C(Nc1nc2cccc(-c3ccc(CN4CCS(=O)(=O)CC4)cc3)n2n1)C1CC1` [Filgotinib (GLPG0634)] it is 0.961 ± 0.048; for `CC1=C(/C=C/C(C)=C/C=C/C(C)=C/C(=O)O)C(C)(C)CCC1` [Tretinoin] it is 0.909 ± 0.042. The figure for `C[C@]12CC[C@H](O)CC1=CC[C@@H]1[C@@H]2CC[C@]2(C)C(n3cnc4ccccc43)=CC[C@@H]12` [Galeterone] is 1.06 ± 0.033; for `CN(C)CCOC(c1ccccc1)c1ccccc1` [Diphenhydramine HCl] it is 1.03 ± 0.028. `COc1ccc2[nH]c([S+]([O-])Cc3ncc(C)c(OC)c3C)nc2n1` (stereo not given) [Tenatoprazole] gave a cell viability of 1.01 ± 0.013. `CCOC(=O)CCNc1cc(N2CCc3ccccc3CC2)nc(-c2ccccn2)n1` returned a cell viability of 0.9 ± 0.034.

Take `Cn1cc(CNCC2CCN(c3ncc(C(=O)NO)cn3)CC2)c2ccccc21`: the cell viability is 0.112 ± 0.0029.

Compound `CC(=O)[C@H]1CC[C@H]2[C@@H]3CCC4=CC(=O)CC[C@]4(C)[C@H]3CC[C@]12C` [Progesterone] registered a cell viability of 0.996 ± 0.015. The figure for `CN(C)CC/C=C1/c2ccccc2Sc2ccc(Cl)cc21` [Chlorprothixene] is 0.957 ± 0.039; for `C[C@]12CC[C@@H]3c4ccc(O)cc4CC[C@H]3[C@@H]1CC[C@@H]2O` [Estradiol] it is 0.976 ± 0.033; for `CCCN(CCC)S(=O)(=O)c1ccc(C(=O)O)cc1` [Probenecid] it is 0.958 ± 0.029.

Turning to `CCNC(=O)Nc1ccc(-c2nc3c(c(N4CCOC[C@@H]4C)n2)CCN(C2COC2)C3)cc1`, the cell viability came to 0.506 ± 0.04. The figure for `CCNC(=O)c1[nH]nc(-c2cc(Cl)c(O)cc2O)c1-c1ccc(OC)cc1` is 0.697 ± 0.032; for `C[C@H](NC(=O)/C(C#N)=C/c1cccc(Br)n1)c1ccccc1` it is 0.994 ± 0.019; for `CC(C)c1ccc(NC(=O)Cn2cnc3c2c(=O)n(C)c(=O)n3C)cc1` it is 0.953 ± 0.063. As for `CC1CNc2c(cccc2S(=O)(=O)N[C@@H](CCCNC(=N)N)C(=O)N2CC[C@@H](C)C[C@@H]2C(=O)O)C1` (stereo not given in full) [Argatroban], the figure is 1.11 ± 0.064; as for `CN(C)CCN(Cc1ccccc1)c1ccccn1` [Tripelennamine HCl], 1 ± 0.033.

Regarding `CO[C@H]1C[C@@H]2CC[C@@H](C)[C@@](O)(O2)C(=O)C(=O)N2CCCC[C@H]2C(=O)O[C@H]([C@H](C)C[C@@H]2CC[C@@H](OCCO)[C@H](OC)C2)CC(=O)[C@H](C)/C=C(\C)[C@@H](O)[C@@H](OC)C(=O)[C@H](C)C[C@H](C)/C=C/C=C/C=C/1C` [Everolimus (RAD001)], the cell viability is 0.563 ± 0.014. The figure for `Fc1ccc(Cl)cc1-c1nc(Nc2ccncc2)c2nccnc2n1` is 0.966 ± 0.056.
